This note sets out measurements from the supplement of paper PMC4604168 (melanoma cell lines).

The structures appear in SMILES notation. The list shows a part of the results. Single values are uncertain, as repeats are few or missing.
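Also: cell number obtained by counting DAPI-stained nuclei in high-throughput microscope images with image analysis software, screen run in 1,536-well plates.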

One test has as its system SkMel2. The test is described as follows: cell count relative to DMSO control; melanoma cells; higher = more viable cells. The following applies: library dose: low library concentration; 72 h.
On to `Nc1ncn([C@H]2C[C@H](O)[C@@H](CO)O2)c(=O)n1` [decitabine] + CN(C)S(=O)(=O)c1ccc2c(c1)/C(=C/c1cc3c([nH]1)CCCC3)C(=O)N2 [SU6656] (first compound 0.1 µM, partner dose 0.4 µM), for which the cell count was determined as 97.9%.

For `CC(=O)O[C@@]12CO[C@@H]1C[C@H](O)[C@@]1(C)C(=O)[C@H](O)C3=C(C)[C@@H](OC(=O)[C@H](O)[C@@H](NC(=O)OC(C)(C)C)c4ccccc4)C[C@@](O)([C@@H](OC(=O)c4ccccc4)[C@H]21)C3(C)C` [Docetaxel] + COc1cc(N2CCC(N3CCN(C)CC3)CC2)ccc1Nc1ncc(Cl)c(Nc2ccccc2S(=O)(=O)C(C)C)n1 [NVP-TAE684] (first compound 0.0001 µM, partner dose 0.08 µM), the cell count amounted to 41.2%.

Regarding `Nc1nc(F)nc2c1ncn2[C@@H]1O[C@H](CO)[C@@H](O)[C@@H]1O` [fludarabine] + O=C(Nc1cccc(Cl)c1)Nc1ncc(CCNc2ncnc3ccsc23)s1 [SNS314] (first compound 0.2 µM, partner dose 0.0008 µM), the cell count came to 6.81%.

In turn, `CC(=O)O[C@@]12CO[C@@H]1C[C@H](O)[C@@]1(C)C(=O)[C@H](O)C3=C(C)[C@@H](OC(=O)[C@H](O)[C@@H](NC(=O)OC(C)(C)C)c4ccccc4)C[C@@](O)([C@@H](OC(=O)c4ccccc4)[C@H]21)C3(C)C` [Docetaxel] + CC(C)CCN1c2nc(Nc3cc(F)c(O)c(F)c3)ncc2N(C)C(=O)C1C [BID1870] (first compound 0.0001 µM, partner dose 0.2 µM) gave a cell count of 40.7%.

Turning to `Nc1ncn([C@H]2C[C@H](O)[C@@H](CO)O2)c(=O)n1` [decitabine] + COc1ccc(-c2ccc3c(N4CCOCC4)nc(N4C[C@@H](C)O[C@@H](C)C4)nc3n2)cc1CO [KU0063794] (first compound 0.1 µM, partner dose 0.02 µM), the cell count was determined as 93.8%.

In turn, `Nc1ccn([C@@H]2O[C@H](CO)[C@@H](O)C2(F)F)c(=O)n1` [gemcitabine] + CC1(C)NC(=O)N(c2ccc([N+](=O)[O-])c(C(F)(F)F)c2)C1=O [nilutamide] (first compound 0.0004 µM, partner dose 1 µM) came in with a cell count of 102%.

Compound `CC(=O)c1c(C)c2cnc(Nc3ccc(N4CCNCC4)cn3)nc2n(C2CCCC2)c1=O` [palbociclib] + CC(C)(C)c1cnc(CSc2cnc(NC(=O)C3CCNCC3)s2)o1 [SNS-032] (first compound 0.04 µM, partner dose 0.01 µM) yielded a cell count of 81.7%.

`Nc1ccn([C@@H]2O[C@H](CO)[C@@H](O)C2(F)F)c(=O)n1` [gemcitabine] + Cc1ccc(NC(=O)c2cccc(N(C)C)c2)cc1NC(=O)c1ccc(O)cc1 [ZM336372] (first compound 0.0004 µM, partner dose 2 µM) yielded a cell count of 117%.

The test system of the next test is SkMel30. Described as above. The note with it: library dose: low library concentration; 72 h.
`CC(=O)O[C@@]12CO[C@@H]1C[C@H](O)[C@@]1(C)C(=O)[C@H](O)C3=C(C)[C@@H](OC(=O)[C@H](O)[C@@H](NC(=O)OC(C)(C)C)c4ccccc4)C[C@@](O)([C@@H](OC(=O)c4ccccc4)[C@H]21)C3(C)C` [Docetaxel] + CN(NC(=O)CC(=O)NN(C)C(=S)c1ccccc1)C(=S)c1ccccc1 [STA4783] (first compound 0.0001 µM, partner dose 0.006 µM) registered a cell count of 25.4%.

Compound `CC(=O)O[C@@]12CO[C@@H]1C[C@H](O)[C@@]1(C)C(=O)[C@H](O)C3=C(C)[C@@H](OC(=O)[C@H](O)[C@@H](NC(=O)OC(C)(C)C)c4ccccc4)C[C@@](O)([C@@H](OC(=O)c4ccccc4)[C@H]21)C3(C)C` [Docetaxel] + Cc1ccc(NC(=O)c2cccc(N(C)C)c2)cc1NC(=O)c1ccc(O)cc1 [ZM336372] (first compound 0.0001 µM, partner dose 2 µM) showed a cell count of 28.7%.

With `Nc1ncn([C@H]2C[C@H](O)[C@@H](CO)O2)c(=O)n1` [decitabine] + CO[C@@H]1[C@H](N(C)C(=O)c2ccccc2)C[C@H]2O[C@]1(C)n1c3ccccc3c3c4c(c5c6ccccc6n2c5c31)C(=O)NC4 [Midostaurin] (first compound 0.1 µM, partner dose 0.08 µM), the cell count came out at 129%.

`Nc1ccn([C@@H]2O[C@H](CO)[C@@H](O)C2(F)F)c(=O)n1` [gemcitabine] + CCc1ccc(CCOc2ccc(CC3SC(=O)NC3=O)cc2)nc1 [pioglitazone] (first compound 0.0004 µM, partner dose 2 µM) gave a cell count of 108%.

On to `CC(=O)c1c(C)c2cnc(Nc3ccc(N4CCNCC4)cn3)nc2n(C2CCCC2)c1=O` [palbociclib] + C=CCn1c(=O)c2cnc(Nc3ccc(N4CCN(C)CC4)cc3)nc2n1-c1cccc(C(C)(C)O)n1 [MK1775] (first compound 0.04 µM, partner dose 0.02 µM), for which the cell count stood at 53%.

`CC(=O)c1c(C)c2cnc(Nc3ccc(N4CCNCC4)cn3)nc2n(C2CCCC2)c1=O` [palbociclib] + Oc1cc(-c2nc(-c3ccccc3)[nH]c2-c2ccncc2)ccc1Cl [L779450] (first compound 0.04 µM, partner dose 0.2 µM) came in with a cell count of 78.8%.

On to `Nc1ncn([C@H]2C[C@H](O)[C@@H](CO)O2)c(=O)n1` [decitabine] + c1cc(-c2cnn3cc(-c4ccc(OCCN5CCCCC5)cc4)cnc23)ccn1 [Dorsomorphin] (first compound 0.1 µM, partner dose 0.4 µM), for which the cell count came to 87.3%.

As to `Nc1ncn([C@H]2C[C@H](O)[C@@H](CO)O2)c(=O)n1` [decitabine] + O=C(Nc1ccccc1)c1cc([N+](=O)[O-])ccc1Cl [GW9662] (first compound 0.1 µM, partner dose 2 µM), the cell count was determined as 88.2%.

Turning to `Nc1ncn([C@H]2C[C@H](O)[C@@H](CO)O2)c(=O)n1` [decitabine] + O=C(Nc1cccc(Cl)c1)Nc1ncc(CCNc2ncnc3ccsc23)s1 [SNS314] (first compound 0.1 µM, partner dose 0.0008 µM), the cell count was 95.9%.

With `CC(=O)O[C@@]12CO[C@@H]1C[C@H](O)[C@@]1(C)C(=O)[C@H](O)C3=C(C)[C@@H](OC(=O)[C@H](O)[C@@H](NC(=O)OC(C)(C)C)c4ccccc4)C[C@@](O)([C@@H](OC(=O)c4ccccc4)[C@H]21)C3(C)C` [Docetaxel] + Cn1cncc1[C@@](N)(c1ccc(Cl)cc1)c1ccc2c(c1)c(-c1cccc(Cl)c1)cc(=O)n2C [tipifarnib] (first compound 0.0001 µM, partner dose 0.01 µM), the cell count worked out at 32.3%.

For `Nc1nc(F)nc2c1ncn2[C@@H]1O[C@H](CO)[C@@H](O)[C@@H]1O` [fludarabine] + CC1(C)NC(=O)N(c2ccc([N+](=O)[O-])c(C(F)(F)F)c2)C1=O [nilutamide] (first compound 0.2 µM, partner dose 1 µM), the cell count worked out at 16.5%.

`Nc1ncn([C@H]2C[C@H](O)[C@@H](CO)O2)c(=O)n1` [decitabine] + O=C(CCCCCCC(=O)Nc1ccccc1)NO [vorinostat] (first compound 0.1 µM, partner dose 0.08 µM): the cell count is 89.5%.

The compound `CC(=O)c1c(C)c2cnc(Nc3ccc(N4CCNCC4)cn3)nc2n(C2CCCC2)c1=O` [palbociclib] + COc1ccc(-c2ccc3c(N4CCOCC4)nc(N4C[C@@H](C)O[C@@H](C)C4)nc3n2)cc1CO [KU0063794] (first compound 0.04 µM, partner dose 0.02 µM) gave a cell count of 69.7%.

In the case of `Nc1nc(F)nc2c1ncn2[C@@H]1O[C@H](CO)[C@@H](O)[C@@H]1O` [fludarabine] + O=C(O)C(=O)Nc1sc2c(c1C(=O)O)CCNC2 [TCS401] (first compound 0.2 µM, partner dose 1.66667 µM), the cell count came out at 28.4%.

For `Nc1ncn([C@H]2C[C@H](O)[C@@H](CO)O2)c(=O)n1` [decitabine] + COc1cc(Nc2ncc(F)c(Nc3ccc4c(n3)NC(=O)C(C)(C)O4)n2)cc(OC)c1OC [Tamatinib] (first compound 0.1 µM, partner dose 0.4 µM), the cell count turned out to be 98.6%.

For `Nc1nc(F)nc2c1ncn2[C@@H]1O[C@H](CO)[C@@H](O)[C@@H]1O` [fludarabine] + CCc1ccc(CCOc2ccc(CC3SC(=O)NC3=O)cc2)nc1 [pioglitazone] (first compound 0.2 µM, partner dose 2 µM), the cell count stood at 21.8%.

Compound `Nc1ccn([C@@H]2O[C@H](CO)[C@@H](O)C2(F)F)c(=O)n1` [gemcitabine] + O=C(Nc1cccc(Cl)c1)Nc1ncc(CCNc2ncnc3ccsc23)s1 [SNS314] (first compound 0.0004 µM, partner dose 0.0008 µM) returned a cell count of 113%.

In the case of `Nc1ccn([C@@H]2O[C@H](CO)[C@@H](O)C2(F)F)c(=O)n1` [gemcitabine] + CN(C)S(=O)(=O)c1ccc2c(c1)/C(=C/c1cc3c([nH]1)CCCC3)C(=O)N2 [SU6656] (first compound 0.0004 µM, partner dose 0.4 µM), the cell count turned out to be 113%.

In turn, `Nc1ncn([C@H]2C[C@H](O)[C@@H](CO)O2)c(=O)n1` [decitabine] + COc1cc(N2CCC(N3CCN(C)CC3)CC2)ccc1Nc1ncc(Cl)c(Nc2ccccc2S(=O)(=O)C(C)C)n1 [NVP-TAE684] (first compound 0.1 µM, partner dose 0.08 µM) registered a cell count of 86.5%.

In turn, `CC(=O)O[C@@]12CO[C@@H]1C[C@H](O)[C@@]1(C)C(=O)[C@H](O)C3=C(C)[C@@H](OC(=O)[C@H](O)[C@@H](NC(=O)OC(C)(C)C)c4ccccc4)C[C@@](O)([C@@H](OC(=O)c4ccccc4)[C@H]21)C3(C)C` [Docetaxel] + CCCCCCCCCCCC1=C(O)C(=O)C=C(O)C1=O [Embelin] (first compound 0.0001 µM, partner dose 1.2 µM) had a cell count of 36.9%.
